Experimental data published in the supplement of paper PMC3334620.
The full ranking holds about 33,000 sequences; the median of “E-score (-0.5 to 0.5)” is about -0.054, and the highest 2% start at about 0.39. Some of the results follow.

Biological target: Ylr278c (UniProt Q05854)
Assay: PBM E-score (8-mer binding enrichment) (E-score (-0.5 to 0.5)); higher = stronger / more preferred TF binding; most listed sequences are background and not binding sites
Settings: protein concentration: 200 nM; construct: GST-DNA-binding domain
Protocol: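 Universal 'all 10-mer' protein binding microarrays (Agilent AMADID 015681) probed with GST-tagged S. cerevisiae TFs (full-length or DBD) made by in vitro transcription/translation (PURExpress), about 100-200 nM. Bound TF was detected with fluorescent anti-GST. Each ungapped 8-mer (which stands for itself and its reverse complement) is scored by the PBM enrichment score (E-score), a modified Wilcoxon-Mann-Whitney statistic from -0.5 to +0.5, computed with the Universal PBM Analysis Suite. Scale: above 0.35 generally sequence-specific binding.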

Sequence	PBM E-score
CCACCGCA	0.115
TACATTCA	-0.223
TACAGACA	-0.175
CCTTCCGA	0.25
GGTTTTAC	0.0115
TGACGACA	-0.022
CCCGCGCA	0.252
AACGGTAG	-0.108
GCACTGGC	-0.215
ATGCTTAC	-0.252
CTTCGAAG	-0.118
GATCGTGC	-0.0347
GAAAAGCA	-0.133
CACCAGAC	-0.0118
CCGCCGCC	0.304
GCAAGCAA	-0.095
AATTGGAG	-0.157
CAAATTTA	0.016
CATGCGAC	-0.177
ACTCGTCC	-0.0356
GAGCACAA	0.089
CAAAAAGC	0.142
CGCGCGGC	0.325
ATCTTAAC	-0.14
ATTGTCCA	-0.113

Sequence	PBM E-score
AGGTTTAG	-0.0626
AACAATTC	-0.0718
TATCCCGA	0.258
CAGGTCTC	-0.273
CTATTAAA	-0.163
CCTGGCAC	-0.165
AATTAGTG	-0.0849
GAATCCCA	-0.0924
TCGTTCAA	-0.123
AGTATAAC	-0.215
CGGAGTCA	0.457
CAGGGCCG	0.181
ATTGCTGC	-0.0351
CAACCCTC	-0.121
GGTTAACA	0.0497
CCCGGCTA	0.299
ACCTTAGA	0.0129
AGAAGCTG	-0.172
ACAGATTA	-0.129
AGGATGCC	-0.0669
AGTAGAAC	-0.246
ATCATAAC	-0.08
GGATCTTA	0.135
CTAGAAGC	-0.113
CCAGTAGA	-0.279

Sequence	PBM E-score
AGCATTCG	-0.0217
ACTCCTAG	-0.114
ATGACACC	-0.183
TCGGAACA	0.417
GGGGCTGA	-0.132
GAGCGTCC	-0.0249
AATGGACG	0.103
AGAGTCGC	-0.14
AATGTTGG	-0.0382
GAAACCGC	0.199
ATTTAACG	0.164
AAGGGCCT	-0.252
CGTAGCCC	0.0595
ATCGATTA	-0.0212
GCACTACA	-0.234
ACGTATCT	-0.108
CCAATGCC	0.158
CACTGGGA	-0.268
TAGTTCCA	-0.215
AATATCTG	-0.0672
AATGGTGC	0.0412
AGGGGGGA	-0.26
ATTCTTCA	0.0434
CGGTACAC	0.0775
GACTGATA	-0.144

Sequence	PBM E-score
AGCTCCGC	0.436
ACTAACGC	0.0051
AACAAGAC	-0.0898
CTGATGTC	0.0488
ACTGAACC	0.162
AACGGCGA	0.244
GGGCATCA	-0.137
AACTTGAG	-0.153
ATGTGCTA	0.0403
GTCCCACA	0.0487
AGTAACTC	0.041
CATCCACA	-0.174
CGACCATC	-0.032
GTAGTACA	-0.233
ATCACGAT	-0.164
ACGCTAAG	-0.345
GGACAGGA	-0.0534
ATCGAAGG	-0.0782
GTGTGAAA	-0.0146
GGCAGATA	0.13
CCCACCGA	0.00192
CTATCTGA	-0.328
GCCGTCGC	0.0738
TAATCTGA	-0.185
ACGCTTTA	-0.298

Sequence	PBM E-score
CGATTTCC	0.336
CAGGTCAC	-0.261
ACGCAGAG	-0.118
GGTTAAGA	-0.204
CAGGCGAC	-0.0604
AGTGTGGG	0.0815
AGCAAAGG	-0.0467
GGCGATTA	0.164
AATGCTAA	-0.0396
GAAACTCC	0.399
CTTTTATC	0.00807
ATTTCGAA	0.0794
CTTGTCCC	0.164
GGTGAAAC	0.0866
TCAGATCA	-0.247
GTACGAGA	-0.0211
ACATGACC	-0.182
AGTAAGAC	-0.128
GTTGCGTA	0.0604
CGAAATAC	0.135
AAGCTATA	-0.0999
AGCAAATA	-0.0583
GGCTCTAA	-0.0326
CAAGGGTC	0.0181
CGTAACGC	0.0321

Sequence	PBM E-score
AGGTCAAG	-0.0669
CCCGCTTA	0.0741
GCAGCTCC	0.107
CAGCCATG	-0.304
GGTTAGAA	-0.15
TACTAGAA	-0.0203
ATCTCGTA	-0.292
AACGGAGT	0.448
ACGTAAGC	-0.162
CGAGGTGC	0.173
GCTAGCTA	-0.221
ATGGAGAC	-0.103
ATTATATC	-0.147
GAGCCCAA	-0.116
CATGCACC	-0.0878
CTCGAGTC	-0.103
GGTATGAA	-0.144
GGGTTGCA	-0.136
AAGATTGC	0.049
CTGCGTGA	-0.0239
CGGTATTC	0.317
AAAGTTAT	-0.0557
CCAGATAG	-0.286
CTCGCGTC	0.0578
CAATATAC	-0.0223

Sequence	PBM E-score
AGTTGACA	-0.0988
CCGGCGTC	0.355
ACCGCATA	0.13
ACACCGAT	0.165
CCTACATC	0.144
GCTCATCA	-0.101
ACAGACAC	-0.141
CGTGCTTA	0.00648
ACTATTCT	-0.101
GCCATCCC	0.0681
CCAAGGAC	-0.0974
CAAGCTGC	-0.103
CAATAACA	-0.107
AGTGCTAC	-0.361
AGAATTGC	-0.0267
TGAGCAAA	-0.0941
AGAACGCA	-0.0793
TCGATCAA	-0.0973
TCTGTCAA	-0.225
ATGTCCGC	0.403
CTGTCTGA	-0.224
TTAGATAA	-0.214
